# Source: PubChem BioAssay AID463173 (ICCB-Longwood Screening Facility, Harvard Medical School, 2010)
# About 4,300 (8.3%) of roughly 52,000 compounds were called active. No stated cut-off is given here; in the data, active means survival mostly below about 52% (no sharp cut-off); inactive means mostly above about 56%. The list shows a part of the results.
# Tested on: DeltatarO mutant
# Assay: S. aureus survival, RN4220 and DeltatarO strains – OD600, teichoic acid synthesis inhibitors, primary screen (AID 463173)
# Conditions: S. aureus RN4220 wild type/DeltatarO growth, OD600, 18 h, stronger effect = lower value, screened at 18.75 µg/mL (by protocol)
row,Structure (SMILES),survival
1,COc1ccccc1CN1CCC(CNC(=O)c2cnn(-c3cccc(Cl)c3)c2C2CCN(C(=O)OC(C)(C)C)CC2)CC1,inactive: 86%
2,Cc1c(NS(=O)(=O)c2ccc(C(C)(C)C)cc2)c(=O)n(-c2ccccc2)n1C,inactive: 44%
3,Cc1ccc2occ(CC(=O)Nc3c(C)cccc3C)c2c1,inactive: 107%
4,CCCN(C(=O)c1ccc2c(=O)n3c(nc2c1)CCCCC3)c1cccc(Cl)c1,inactive: 74%
5,Cc1cc(C)cc(NCc2nnc3n2CCCCC3)c1,inactive: 89%
6,Cc1ccc(-n2ncc3c(NC4CCCCC4)ncnc32)cc1C,inactive: 89%
7,Cc1ccc(C2C(C#N)=C(N)SC(N)=C2C#N)c(C)c1,inactive: 86%
8,O=C(c1ccccc1)n1nc(-c2ccc(Cl)cc2)nc1NCc1ccco1,active: 23%
9,CCOC(=O)c1cc2c(=O)n3ccccc3nc2n(CCOC)c1=NC(=O)c1c(-c2c(F)cccc2Cl)noc1C,inactive: 148%
10,CSc1ccc(CCNC(=O)Cn2ncc3c([nH]c4ccccc43)c2=O)cc1,inactive: 95%
11,Cc1cccc(NC(=O)CN2C(=O)C(c3ccc(F)cc3)=NC23CCCCCC3)c1C,inactive: 63%
12,COCC(C)NCc1ccccc1OC (stereo unspecified),inactive: 94%
13,Cc1cc2c(cc1S(=O)(=O)NCc1ccc(F)cc1)OCC(=O)N2,inactive: 89%
14,COc1ccc(C(=O)Nc2ccccc2)cc1,inactive: 98%
15,COc1ccc(NC(=O)CN2C(=O)COc3ccc(S(=O)(=O)NC4CCCC4)cc32)cc1OC,inactive: 75%
16,Cc1ccc(OCc2cc(=O)n3cc(C)sc3n2)c(NC(=O)c2ccco2)c1,inactive: 81%
17,COc1ccc(NC(=O)c2cnc3sc(N4CCOCC4)nn3c2=O)c(OC)c1,inactive: 55%
18,Cc1ccc(C)c(NC(=O)Cn2cc(S(=O)(=O)NC(C)C)c(S(=O)(=O)NC(C)C)c2)c1,inactive: 85%
19,O=C(O)c1cc(N2C(=O)C3CC=CCC3C2=O)ccc1NCc1cccnc1 (stereo unspecified),inactive: 90%
20,N=C(N)N=Nc1ccc(O)cc1,inactive: 99%
21,CCOc1ccc(NC(=O)c2ccc3nc(C(C)C)oc3c2)cc1,inactive: 78%

row,Structure (SMILES),survival
1,COc1ccc(Cn2c(C(=O)O)c(CNCc3ccc(C)o3)c3ccc(OC)cc32)cc1,inactive: 69%
2,CCc1cccc(NC(=O)Cn2nc(C)c3sc4ccccc4c3c2=O)c1,inactive: 74%
3,COc1ccccc1OC(C)C(=O)N1CCC(c2nc3ccccc3s2)CC1 (stereo unspecified),active: 2%
4,COc1ccc(-c2nnc(SCC(=O)Oc3cc(C)ccc3C)o2)cc1,inactive: 67%
5,CCOC(=O)c1cc2c(=O)n3ccccc3nc2n(CC2CCCO2)c1=NC(=O)c1ccc(F)cc1 (stereo unspecified),inactive: 54%
6,N#CC1=C(N)NC(SCC(=O)Nc2ccc(Br)cc2)=C(C#N)C12CCCCC2,active: 12%
7,CCCCCNC(=O)c1ccc2c(=O)n(CCc3ccccc3)c(=O)[nH]c2c1,inactive: 76%
8,CCOC(=O)N1CCc2c(sc(NCc3cccc(F)c3)c2C(=O)Nc2ccc(OCC)cc2)C1,inactive: 67%
9,COc1ccc(C(=O)Nc2nonc2-c2ccc(OC)c(OC)c2)cc1Cl,inactive: 49%
10,Cc1ccc(-c2nc(Cn3c(SCc4ccc(F)cc4)nc4cccnc43)c(C)o2)cc1,inactive: 91%
11,CCCn1c(NCc2ccccc2F)nc2ccccc21,inactive: 90%
12,O=C(Nc1cccc(NC(=O)c2ccc(Br)cc2)c1)c1ccccc1,inactive: 76%
13,COC(=O)COc1ccc(S(=O)(=O)N2CCC(C)CC2)cc1,inactive: 95%
14,CCC(=O)N1c2ccc(S(=O)(=O)CCC(=O)N3CCN(c4ccc(F)cc4)CC3)cc2CC1C (stereo unspecified),inactive: 86%
15,COc1ccc2c(c1)CC(NC(=O)Nc1ccc(Br)c(C)c1)CO2 (stereo unspecified),inactive: 75%
16,CCO/C(C)=N\Oc1nc2nonc2nc1O/N=C(/C)OCC,inactive: 115%
17,COc1cccc(NC(=O)C2CCN(S(=O)(=O)c3c(C)noc3/C=C/c3cccs3)CC2)c1,inactive: 58%
18,O=C(COc1ccccc1Cl)Nc1nc(-c2ccc(F)cc2)ns1,inactive: 55%
19,CCc1nnc(SCc2nc(-c3cccc(C)c3)oc2C)c2cc3sc(C)cc3n12,inactive: 82%
20,O=C(CSc1nccn1-c1ccc(F)cc1)Nc1cccc2ccccc12,inactive: 85%
21,C#CCNc1ccccc1,inactive: 106%

row,Structure (SMILES),survival
1,O=C(Nc1ccc2ccccc2c1)C1CC(=O)N(C2CCCCC2)C1 (stereo unspecified),inactive: 92%
2,CC(=O)c1ccc(S(=O)(=O)N2CCn3cccc3C2c2ccc(F)c(F)c2)cc1 (stereo unspecified),inactive: 77%
3,COc1ccc(CNc2ncnc3c2c(-c2ccccc2)cn3-c2cccc(C)c2)cc1,inactive: 67%
4,Cc1cc(=O)c2c(o1)CC(C)(C)CC2=O,inactive: 79%
5,CC(C)Oc1ccc(CNC(=O)c2ccc3c(c2)N(C)C(=O)C2CCCCN32)cc1 (stereo unspecified),active: 37%
6,Nc1nc(CSc2ccccn2)nc(Nc2ccccc2)n1,inactive: 97%
7,Cc1ccc(N2CC(NC(=O)C3CCCC3)CC2=O)cc1C (stereo unspecified),inactive: 103%
8,CCOCc1[nH]c(=S)[nH]c(=O)c1Cc1ccc(OCC)cc1,inactive: 62%
9,CC(C)c1ccc(NC(=O)CN2CCC(n3nnc4ccccc43)CC2)cc1,inactive: 69%
10,CCNC(=O)C1CCCN(c2nn3cc(-c4ccc(C)cc4)nc3s2)C1 (stereo unspecified),inactive: 74%
11,CC(C)c1ccc(CNCCSc2nnnn2-c2ccccc2)cc1,inactive: 81%
12,CCc1ccc(NC(=O)Cn2c(=O)n(CCC(=O)NCCc3ccc(OC)c(OC)c3)c(=O)c3ccccc32)cc1,inactive: 91%
13,CCC(C)S(=O)(=O)c1oc(-c2ccc(F)cc2)nc1S(=O)(=O)c1ccc(F)cc1 (stereo unspecified),active: 41%
14,Cc1scc(-c2ccccc2)[n+]1CCO,inactive: 74%
15,CCOc1ccc(-n2nc3ccc(NC(=O)COc4ccccc4)cc3n2)cc1,inactive: 68%
16,CC(=O)Oc1ccccc1C(=O)N1CC(C)OC(C)C1 (stereo unspecified),inactive: 77%
17,CCOC(=O)c1c(-c2ccccc2)oc2cc(Br)c(OCc3ccccc3)cc12,active: 36%
18,CCn1c(=N)c(C(=O)NC2CCCC2)cc2c(=O)n3cc(C)ccc3nc21,inactive: 50%
19,Cc1ccc(OCCCCn2nnc3sc4c(c3c2=O)CCC(C)C4)cc1 (stereo unspecified),inactive: 56%
